From paper PMC4973362
These are yes or no findings as the source states them, for the method shown. In cells and extracts the contact can be indirect. Some entries that bind do so weakly or less than the wild type. Sequences can lack the tags named with a protein.

Chains of the proteins cited; added tags and fusions are not shown.
UniProt Q96SW2: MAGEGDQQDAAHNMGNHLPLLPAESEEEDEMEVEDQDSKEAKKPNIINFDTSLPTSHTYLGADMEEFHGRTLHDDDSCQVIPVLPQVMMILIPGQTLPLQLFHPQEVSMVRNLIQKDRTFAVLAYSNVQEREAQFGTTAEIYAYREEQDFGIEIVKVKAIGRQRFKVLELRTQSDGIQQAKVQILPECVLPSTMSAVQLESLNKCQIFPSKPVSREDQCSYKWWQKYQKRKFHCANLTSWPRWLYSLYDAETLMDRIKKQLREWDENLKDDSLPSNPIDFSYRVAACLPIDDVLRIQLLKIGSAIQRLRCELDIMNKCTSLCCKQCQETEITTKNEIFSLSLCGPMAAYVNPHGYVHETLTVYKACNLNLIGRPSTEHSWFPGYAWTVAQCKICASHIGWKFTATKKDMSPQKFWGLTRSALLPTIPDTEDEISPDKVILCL

Columns and labels:
Myc-TAK1 1-500 = biological target: T1, Myc-TAK1 1-500 (UniProt O43318); experiment: co-IP; HEK293T cells co-transfected, extracted 38 h after transfection; immunoprecipitated with anti-Myc antibody, immunoblotted with anti-Flag or anti-Myc (Figure 3e-g)
T1 sequence: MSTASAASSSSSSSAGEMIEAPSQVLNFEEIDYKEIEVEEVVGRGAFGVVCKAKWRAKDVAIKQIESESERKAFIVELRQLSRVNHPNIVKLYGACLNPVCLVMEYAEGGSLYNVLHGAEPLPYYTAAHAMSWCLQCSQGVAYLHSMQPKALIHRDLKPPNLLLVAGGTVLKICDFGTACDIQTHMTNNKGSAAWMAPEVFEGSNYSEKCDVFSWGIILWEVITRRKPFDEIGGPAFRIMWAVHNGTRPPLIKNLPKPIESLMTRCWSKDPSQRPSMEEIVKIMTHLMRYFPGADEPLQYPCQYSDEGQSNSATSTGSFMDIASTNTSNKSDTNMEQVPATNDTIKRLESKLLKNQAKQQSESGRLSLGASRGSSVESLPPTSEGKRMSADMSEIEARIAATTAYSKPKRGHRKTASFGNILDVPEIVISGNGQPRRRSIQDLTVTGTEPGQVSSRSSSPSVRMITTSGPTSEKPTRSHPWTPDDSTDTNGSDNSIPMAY

Myc-TAK1 1-200 = biological target: T2, Myc-TAK1 1-200 (UniProt O43318); experiment: as above
T2 sequence: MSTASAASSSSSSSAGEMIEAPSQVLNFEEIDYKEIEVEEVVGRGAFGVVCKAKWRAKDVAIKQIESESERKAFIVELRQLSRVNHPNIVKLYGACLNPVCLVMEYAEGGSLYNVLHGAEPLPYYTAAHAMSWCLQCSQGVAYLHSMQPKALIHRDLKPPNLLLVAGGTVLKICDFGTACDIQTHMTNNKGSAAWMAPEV

Myc-TAK1 1-400 = biological target: T3, Myc-TAK1 1-400 (UniProt O43318); experiment: as above
T3 sequence: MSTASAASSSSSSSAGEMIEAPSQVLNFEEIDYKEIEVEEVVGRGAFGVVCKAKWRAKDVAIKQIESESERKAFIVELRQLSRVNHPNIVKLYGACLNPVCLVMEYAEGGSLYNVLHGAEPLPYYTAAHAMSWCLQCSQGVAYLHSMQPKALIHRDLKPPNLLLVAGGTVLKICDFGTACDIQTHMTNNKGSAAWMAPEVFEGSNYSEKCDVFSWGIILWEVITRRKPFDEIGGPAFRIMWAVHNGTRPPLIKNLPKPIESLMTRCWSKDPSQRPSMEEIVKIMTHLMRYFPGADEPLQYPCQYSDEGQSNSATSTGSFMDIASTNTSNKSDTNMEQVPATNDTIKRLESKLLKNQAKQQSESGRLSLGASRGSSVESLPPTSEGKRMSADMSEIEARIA

[1] = biological target: T4, Myc-tagged TAK1 wild type (UniProt O43318); experiment: as above
T4 sequence: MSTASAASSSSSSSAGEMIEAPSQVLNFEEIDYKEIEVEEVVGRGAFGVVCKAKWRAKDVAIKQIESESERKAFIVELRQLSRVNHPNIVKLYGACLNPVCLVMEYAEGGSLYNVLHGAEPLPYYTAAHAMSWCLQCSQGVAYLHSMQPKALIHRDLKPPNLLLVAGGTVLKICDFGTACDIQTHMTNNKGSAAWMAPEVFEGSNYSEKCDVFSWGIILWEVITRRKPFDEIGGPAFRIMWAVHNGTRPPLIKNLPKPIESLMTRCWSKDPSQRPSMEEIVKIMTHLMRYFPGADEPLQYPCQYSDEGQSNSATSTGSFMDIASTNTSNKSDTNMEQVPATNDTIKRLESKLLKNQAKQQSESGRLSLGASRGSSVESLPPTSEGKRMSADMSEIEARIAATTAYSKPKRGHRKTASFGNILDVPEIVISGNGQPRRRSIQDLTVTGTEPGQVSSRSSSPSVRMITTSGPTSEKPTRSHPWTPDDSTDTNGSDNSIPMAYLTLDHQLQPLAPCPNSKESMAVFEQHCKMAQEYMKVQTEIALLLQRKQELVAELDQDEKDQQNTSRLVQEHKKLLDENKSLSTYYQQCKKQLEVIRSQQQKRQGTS

Myc-TAK1 1-300 = biological target: T5, Myc-TAK1 1-300 (UniProt O43318); experiment: as above
T5 sequence: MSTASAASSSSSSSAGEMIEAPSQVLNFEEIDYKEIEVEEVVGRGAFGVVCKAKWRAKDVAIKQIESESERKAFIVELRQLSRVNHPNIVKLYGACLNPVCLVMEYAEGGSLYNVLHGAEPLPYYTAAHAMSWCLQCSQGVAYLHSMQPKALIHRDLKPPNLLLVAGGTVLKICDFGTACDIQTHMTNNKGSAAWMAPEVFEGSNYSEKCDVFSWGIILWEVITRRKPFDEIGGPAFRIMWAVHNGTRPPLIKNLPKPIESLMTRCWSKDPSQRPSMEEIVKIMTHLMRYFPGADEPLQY

[2] = biological target: T4, Myc-tagged TAK1 wild type; experiment: co-IP; HEK293T cells co-transfected with Myc-TAK1 and Flag-TAB1 or Flag-TAB2 in the presence or absence of different concentrations of HA-CRBN, extracted 38 h after transfection; immunoprecipitated with anti-Myc, immunoblotted with anti-Flag, anti-HA or anti-Myc (Figure 3i,j)
Flag-TRAF6 349-522 = biological target: T6, Flag-TRAF6 349-522 (UniProt Q9Y4K3); experiment: co-IP; HEK293T cells co-transfected, extracted 38 h after transfection; immunoprecipitated with anti-Flag antibody, immunoblotted with anti-Flag or anti-HA
T6 sequence: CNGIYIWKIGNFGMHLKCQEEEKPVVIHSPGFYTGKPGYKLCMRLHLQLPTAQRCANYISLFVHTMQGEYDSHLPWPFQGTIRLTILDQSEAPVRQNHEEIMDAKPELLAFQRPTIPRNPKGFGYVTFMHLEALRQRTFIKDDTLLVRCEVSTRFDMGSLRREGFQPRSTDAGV

[3] = biological target: T7, Flag-tagged TAK1 (transforming growth factor-beta-activated kinase 1) (UniProt O43318); experiment: as above
T7 sequence: T4 sequence

Flag-TRAF6 260-522 = biological target: T8, Flag-TRAF6 260-522 (UniProt Q9Y4K3); experiment: as above
T8 sequence: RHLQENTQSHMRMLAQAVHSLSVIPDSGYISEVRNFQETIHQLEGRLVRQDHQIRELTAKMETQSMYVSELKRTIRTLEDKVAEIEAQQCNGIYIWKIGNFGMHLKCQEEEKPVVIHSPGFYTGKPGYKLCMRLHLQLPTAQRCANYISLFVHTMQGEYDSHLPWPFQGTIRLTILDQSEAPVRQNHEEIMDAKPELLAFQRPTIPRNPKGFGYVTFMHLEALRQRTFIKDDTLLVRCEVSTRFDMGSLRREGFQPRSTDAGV

Flag-TRAF6 110-522 = biological target: T9, Flag-TRAF6 110-522 (UniProt Q9Y4K3); experiment: as above
T9 sequence: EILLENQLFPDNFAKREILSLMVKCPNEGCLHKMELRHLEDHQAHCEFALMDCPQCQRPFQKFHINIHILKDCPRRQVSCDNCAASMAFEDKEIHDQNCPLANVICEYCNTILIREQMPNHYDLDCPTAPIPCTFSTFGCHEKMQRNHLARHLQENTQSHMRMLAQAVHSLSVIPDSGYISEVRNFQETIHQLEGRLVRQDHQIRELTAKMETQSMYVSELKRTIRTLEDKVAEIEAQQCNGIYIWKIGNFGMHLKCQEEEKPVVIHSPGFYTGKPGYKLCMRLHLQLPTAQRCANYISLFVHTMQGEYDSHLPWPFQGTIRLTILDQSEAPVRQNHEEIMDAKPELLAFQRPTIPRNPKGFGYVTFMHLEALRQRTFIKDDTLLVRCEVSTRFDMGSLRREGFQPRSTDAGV

[4] = biological target: T10, Flag-tagged TAB1 (TAK1-binding protein 1) (UniProt Q15750); experiment: as above
T10 sequence: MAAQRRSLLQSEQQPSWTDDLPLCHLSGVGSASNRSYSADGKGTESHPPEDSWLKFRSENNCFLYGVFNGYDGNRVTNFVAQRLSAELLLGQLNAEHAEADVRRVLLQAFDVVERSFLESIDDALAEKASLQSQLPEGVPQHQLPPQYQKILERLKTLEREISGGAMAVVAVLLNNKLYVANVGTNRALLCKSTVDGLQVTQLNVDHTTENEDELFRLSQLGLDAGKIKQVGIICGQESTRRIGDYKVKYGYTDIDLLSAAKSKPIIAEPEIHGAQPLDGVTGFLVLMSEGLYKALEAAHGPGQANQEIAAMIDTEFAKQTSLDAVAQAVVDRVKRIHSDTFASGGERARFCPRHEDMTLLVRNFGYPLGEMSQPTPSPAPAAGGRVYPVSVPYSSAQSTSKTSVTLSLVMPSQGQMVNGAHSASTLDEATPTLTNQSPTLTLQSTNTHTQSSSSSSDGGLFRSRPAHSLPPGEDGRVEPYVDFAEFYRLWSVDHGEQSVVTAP

| binding (Myc-TAK1 1-500) | binding (Myc-TAK1 1-200) | binding (Myc-TAK1 1-400) | binding [1] | binding (Myc-TAK1 1-300) | binding [2] | binding (Flag-TRAF6 349-522) | binding [3] | binding (Flag-TRAF6 260-522) | binding (Flag-TRAF6 110-522) | binding [4] | Substance |
| --- | --- | --- | --- | --- | --- | --- | --- | --- | --- | --- | --- |
| binds | no binding | binds | binds | no binding |  |  |  |  |  |  | Flag-tagged CRBN (Cereblon) (from UniProt Q96SW2 1-442) |
|  |  |  |  |  | binds | no binding | binds | no binding | binds | no binding | HA-tagged CRBN (Cereblon) (from UniProt Q96SW2 1-442) |
